The supplement of paper PMC12217912
This is one part of the list. The full chains were built here from the parent and the listed change. Values near 0.05 are background.

B1: TEV protease; numbered along this chain (parent)
chain: MGESLFKGPRDYNPISSSICHLTNESDGHTTSLYGIGFGPFIITNKHLFRRNNGTLVVQSLHGVFKVKDTTTLQQHLVDGRDMIIIRMPKDFPPFPQKLKFREPQREERICLVTTNFQTKSMSSMVSDTSCTFPSGDGIFWKHWIQTKDGQCGSPLVSTRDGFIVGIHSASNFTNTNNYFTSVPKNFMELLTNQEAQQWVSGWRLNADSVLWGGHKVFMVKPEEPFQPVKEATQL

Variants of: B1
Experiment: raw area under fraction-flipped curve 0-4 h after induction (AUC4h, not background-subtracted), DNA-recorder readout of cleavage of the substrate (dimensionless); higher = more cleavage of the substrate by the protease variant
Details: temperature: 34 °C; time window: 0-4 h after rhamnose induction
Experimental: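 In vivo DNA recorder in E. coli TOP10(DE3) ΔrhaA at 34 °C. Each TEVp single-site mutant (parent TEVp 0) is paired with a single-site variant of the 7-mer TEVs (canonical ENLYFQ|S). The substrate sits between flexible linkers in a Bxb1-sfGFP-TEVs-SsrA fusion, so cleavage stabilises Bxb1 and speeds flipping of a recombination array, read by NGS. The value is the raw area under the fraction-flipped curve over 0-4 h after rhamnose induction (AUC4h), with ≥20 reads per time point. It is not background-subtracted; inactive controls average about 0.047.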
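Further: Bxb1 expression induced with 0.2% (w/v) L-rhamnose at OD600 near 0.5, cultures sampled hourly, flipped fraction per protease–substrate barcode pair counted by paired-end Illumina sequencing.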

Variant | area with substrate ENAYFQS | area with substrate ENCYFQS | area with substrate ENDYFQS | area with substrate ENEYFQS | area with substrate ENGYFQS | area with substrate ENMYFQS | area with substrate ENNYFQS | area with substrate ENPYFQS | area with substrate ENQYFQS | area with substrate ENRYFQS | area with substrate ENSYFQS | area with substrate ENTYFQS | area with substrate ENVYFQS | area with substrate ENWYFQS | area with substrate ENYYFQS | area with substrate ENFYFQS | area with substrate ENIYFQS | area with substrate ENKYFQS | area with substrate ENHYFQS
R51W | 0.0728 | 0.0557 | 0.051 | 0.0459 | 0.0569 | 0.0988 | 0.0605 | 0.0524 | 0.0295 | 0.0411 | 0.0702 | 0.0737 | 0.082 | – | – | – | – | – | –
R51Y | 0.0662 | 0.0624 | 0.0795 | 0.0554 | 0.0575 | – | 0.061 | 0.0575 | 0.0513 | – | – | – | 0.053 | 0.0356 | 0.0603 | – | – | – | –
R51P | 0.0596 | 0.0393 | 0.0628 | 0.0509 | 0.0679 | – | – | 0.0602 | 0.0577 | 0.0456 | 0.0585 | 0.0808 | – | – | – | 0.0626 | 0.0735 | 0.0489 | –
I42K | 0.0358 | 0.053 | 0.0492 | 0.0531 | 0.0533 | 0.0642 | 0.0562 | 0.0626 | 0.0584 | 0.0541 | 0.0437 | – | – | 0.0527 | 0.0568 | 0.0662 | 0.0528 | – | 0.0329
R50G | 0.0527 | 0.0552 | 0.0517 | 0.0636 | 0.0697 | – | 0.0633 | 0.0377 | 0.0637 | 0.0579 | 0.0512 | – | 0.0918 | – | 0.0642 | – | 0.111 | 0.0722 | 0.0591
R50M | 0.0658 | 0.0712 | – | 0.0588 | 0.0912 | 0.0995 | 0.0499 | 0.0646 | 0.0597 | 0.0571 | 0.0606 | – | 0.0792 | – | 0.0725 | 0.0486 | 0.142 | 0.0549 | 0.0621
F38H | 0.0618 | 0.0578 | 0.0567 | 0.0573 | 0.067 | – | 0.0534 | 0.0579 | 0.0695 | 0.0604 | 0.0636 | – | 0.0925 | 0.0542 | – | 0.0543 | 0.0975 | 0.0463 | 0.0601
F38Q | 0.0518 | – | 0.0696 | 0.0609 | 0.0717 | 0.0826 | 0.0589 | 0.0582 | 0.056 | 0.0534 | 0.0502 | 0.0612 | 0.0747 | – | 0.0673 | 0.0659 | 0.0952 | 0.0498 | 0.0338
I36K | 0.0423 | 0.0397 | 0.0384 | – | 0.0329 | – | 0.042 | 0.0382 | 0.0364 | – | 0.0375 | – | – | – | – | 0.0408 | 0.0297 | 0.0435 | –
G63S | 0.0737 | 0.0523 | – | 0.0463 | 0.0707 | 0.0619 | 0.0481 | 0.0537 | 0.0598 | 0.0561 | 0.0604 | 0.0523 | 0.067 | – | 0.0535 | 0.0657 | 0.0884 | 0.0683 | –
L61P | 0.0543 | 0.0672 | 0.0613 | 0.0605 | 0.0618 | 0.0644 | – | 0.0538 | 0.0564 | – | – | 0.0554 | 0.0747 | – | 0.0415 | 0.0595 | – | 0.0533 | –
L61R | 0.0617 | 0.0607 | 0.0622 | 0.062 | 0.0641 | 0.0808 | 0.062 | 0.0612 | 0.0609 | 0.0695 | 0.0562 | 0.0633 | 0.0613 | – | – | – | 0.127 | 0.0638 | 0.0668
